Results taken from PubChem BioAssay AID1159614 (National Center for Advancing Translational Sciences (NCATS), 2016).
In all, about 45,000 compounds went through this assay and about 65 (0.1%) were called active. The call rests on the fitted dose curve; in most records, active means well fitted activation curve with a large enough effect; inconclusive means small, poorly fitted or top-dose-only effect; inactive means no such curve, though single readings can be large or run the other way. This is one part of the list.

The molecules below were run against Galactocerebrosidase (Homo sapiens) (UniProt P54803) (assay: A Novel Cell-Based Assay to Identify Small Molecules for B -Galactocerebrosidase). Settings: 145M-Twi-hGALC-G270D cells (Twitcher mouse brain line with human GALC G270D), HMU-beta-Gal fluorescence, 48 h; series mostly up to 57.5 µM; activation: at the top concentration.
Sequence of UniProt P54803 (P54803 whole entry, looked up): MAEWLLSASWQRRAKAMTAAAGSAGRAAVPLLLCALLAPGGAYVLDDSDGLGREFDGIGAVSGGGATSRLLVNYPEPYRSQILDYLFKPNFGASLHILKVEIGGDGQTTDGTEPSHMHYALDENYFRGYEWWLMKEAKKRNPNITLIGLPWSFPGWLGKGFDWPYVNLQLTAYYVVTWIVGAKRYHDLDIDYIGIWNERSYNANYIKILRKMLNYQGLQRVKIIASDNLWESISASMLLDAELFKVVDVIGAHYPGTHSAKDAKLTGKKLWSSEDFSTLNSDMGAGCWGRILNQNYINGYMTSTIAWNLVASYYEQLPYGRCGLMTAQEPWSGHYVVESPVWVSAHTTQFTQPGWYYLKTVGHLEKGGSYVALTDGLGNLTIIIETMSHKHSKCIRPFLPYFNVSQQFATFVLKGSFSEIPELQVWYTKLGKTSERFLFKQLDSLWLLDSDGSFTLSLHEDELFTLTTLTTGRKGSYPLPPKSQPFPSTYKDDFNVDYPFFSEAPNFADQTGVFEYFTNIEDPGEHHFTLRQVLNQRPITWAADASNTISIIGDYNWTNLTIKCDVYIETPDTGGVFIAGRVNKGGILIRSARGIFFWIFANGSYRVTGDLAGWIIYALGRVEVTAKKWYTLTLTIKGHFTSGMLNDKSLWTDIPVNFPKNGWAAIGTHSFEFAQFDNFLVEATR
Summary of the method: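 Live 145M-Twi cells (Twitcher mouse brain-derived, GALC-null) stably expressing human GALC-G270D, with a wild-type GALC line, were compound-treated. Residual GALC activity was then read as fluorescence from 0.1 mM final HMU-β-gal at pH 5.2; higher signal means activation.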
Further: 0% is about no effect; nearly all actives have a fitted effect of over 65% in size.

activation, inactive:
Cc1nn(-c2ccccc2)c(-n2cccc2)c1C(=O)NCCc1ccc(Cl)cc1 -0.691%, CCOc1ccc(CCNC(=O)c2nn(-c3ccc(OC)c(Cl)c3)c(=O)c3c2c2ccccc2n3C)cc1OCC -13.2%, COc1ccc(OCC(=O)Nc2ccc3c(c2)nc(CCNC(=O)c2ccco2)n3C)cc1 11.7%, CCc1ccc(NC(=O)CSc2nc(-c3ccccc3Cl)nc3c2Cc2c(CO)cnc(C)c2O3)cc1 -11.4%, CC(C)NC(=O)c1ccc(-n2c(-c3ccccc3)cc3c2CCCC3)cc1 -25.5%, CC(C)Cn1c(=O)c2sccc2n2c(CCCC(=O)NCCc3ccc(Cl)cc3)nnc12 -10.3%, O=C(Nc1ccc(Br)cc1)c1ccc(F)c(S(=O)(=O)N2CCCc3ccccc32)c1 6.83%, O=C(COc1ccc(Br)cc1Cl)Nc1ncn[nH]1 -5.75%, CCOC(=O)c1ccc(CN(Cc2ccc(Cl)cc2Cl)S(=O)(=O)c2ccc(F)c(C)c2)cc1 -21.5%, CCc1ccc2nc(N(Cc3cccnc3)C(C)=O)sc2c1 -37%, CCCCn1c(=O)c2oc3ccccc3c2n(Cc2cccc(F)c2)c1=O -0.143%, CCC(C)Cn1c(/C=C/c2ccccc2)nc2ccccc21 (stereo not given) -16.2%, Cc1ccc(S(=O)(=O)C(CNC(=O)c2ccc(F)c(F)c2)c2ccco2)cc1 (stereo not given) -13.4%, CCS(=O)(=O)c1ccc(O)c(Nc2cc(C)nc(SC)n2)c1 -9.44%, CCC(=O)C1=C(c2ccc(Cl)cc2)N(C(=O)CC)n2c(C)nnc2S1 -38.4%, O=C(CSc1oc(-c2ccco2)nc1S(=O)(=O)c1ccc(Br)cc1)c1ccccc1 -27.4%, Cc1ccc(NC2=C(CC(=O)O)C(c3ccc(F)cc3)N(c3ccc(C)cc3)C2=O)cc1 (stereo not given) -10.5%, O=C(CCCN1C(=O)c2cccnc2Oc2ccc(Cl)cc21)NCc1ccccc1F -4.77%, CC1CCN(S(=O)(=O)c2nnc(NC(=O)c3ccc(C(C)C)cc3)s2)CC1 -9.03%, CC(C)c1cnc2c(c1SCC(=O)Nc1ccc(OC(F)(F)F)cc1)c(=O)n(C)c(=O)n2C -14.8%, CCN(CC)CCOC(=O)c1ccc(NC(=O)c2nn(C)c3c2COc2ccccc2-3)cc1 -4.47%, CCOC(=O)c1cccc(NC(=O)c2cc3c(=O)n(C)c4ccccc4c3n2C)c1 -0.302%, CCc1nnc2c(Nc3cccc(F)c3)nc3ccc(C(=O)c4ccccc4)cc3n12 -11.7%, Cc1cc(C)cc(NC(=O)c2ccc3c(c2)nnn3C2CCCC2)c1 17.6%, Cc1ccc(CNC(=O)CCN2C(=O)COc3ccc(C)cc32)cc1 -5.01%, Cc1ccsc1CN(C(=O)c1oc2ccc(F)cc2c1C)C1CCS(=O)(=O)C1 (stereo not given) -21%, CCOc1ccccc1NC(=O)N(Cc1ccc(F)cc1)C1CCN(CC)CC1 -20.7%, CCc1ccc(N2CCn3c2nc2c3c(=O)n(C/C=C/c3ccccc3)c(=O)n2C)cc1 -21.3%, Cc1ccc(CNC(=O)CC(C)CC2=NS(=O)(=O)c3ccccc3N2)cc1 (stereo not given) -10.9%, COC(=O)C1=C(C)NC(C)=C(C(=O)OCCN(C)Cc2ccccc2)C1c1cccc([N+](=O)[O-])c1 (stereo not given) -12.9%, COc1ccc(NC(=O)c2c(NCc3ccc(N(C)C)cc3)sc3c2CCC3)cc1 -14.2%, Cc1ccc(C)c(-n2c3nc(=O)[nH]c(=O)c-3cc3c(C)nn(-c4ccccc4)c32)c1 -2.74%, CCc1ccc(NC(=O)c2ccc(F)c(S(=O)(=O)N3CCC4(CC3)OCCO4)c2)cc1 -3.22%, COc1cccc(CNS(=O)(=O)c2cc3[nH]c(=O)c(=O)[nH]c3cc2C)c1 -6.71%, Cc1ccc(Nc2ncc(C(=O)N3CCN(c4ccc(F)cc4)CC3)c3ccccc23)cc1Cl 2.45%, Cc1ccc(NC(=O)C2CCCN2S(=O)(=O)c2cccc3nsnc23)c(C)c1 (stereo not given) -11.3%, CCOc1ccc(-c2nonc2NC(=O)c2oc3cc(C)c(C)cc3c2C)cc1OCC -22.2%, Cc1ccccc1Cn1c2ccccc2c2cnn(CC(=O)NC(C)CCc3ccccc3)c(=O)c21 (stereo not given) -11.2%, CCc1ccc2oc(C(=O)Nc3c(C)n(C)n(-c4ccccc4)c3=O)cc(=O)c2c1 -6.42%, CCOC(=O)c1ccc(N2C(=O)c3n[nH]c(C)c3C2c2ccccc2OC)cc1 (stereo not given) -11.8%, N#Cc1ccc(C(=O)NCc2ccc3c(c2)CCN3C(=O)c2ccc(F)cc2)cc1 -3.91%, Cc1cccc(Cn2nc(C)n3c(cc4cc(C)ccc43)c2=O)c1 -21.9%, Cc1cccc(CCNc2ncnc3onc(-c4ccc(Cl)cc4)c23)c1 3.87%, COC(=O)c1ccc(NC(=O)CN(CCc2ccccc2)S(=O)(=O)c2ccc(OC)cc2)cc1 -18.2%, CCn1c(C(=O)NCc2ccc(OC(C)C)cc2)cc2oc3ccccc3c21 4.05%, CCOc1ccc(-n2c(SCC(=O)N3CCC(C)CC3)nc3c([nH]c4ccccc43)c2=O)cc1 -7.28%, Cc1ccc(C)c(N2CCN(c3ccc4cc(S(=O)(=O)N5CCC(C)CC5)ccc4n3)CC2)c1 -21.1%, Cc1ccc(C)c(N2CCN(C(=O)c3cc(C)nc4c3c(C)nn4-c3cccc(F)c3)CC2)c1 -8.3%, Cc1ccccc1OCC(=O)Nc1sc2c(c1C(=O)OC(C)C)CCCC2 -12.1%, CCOc1ccc(C(=O)NCCc2sc(-c3ccc(OC)c(OC)c3)nc2C)cc1 -16.2%, COc1ccc2c(CNCc3cccs3)c(C(=O)O)n(Cc3ccc(C)cc3)c2c1 -0.652%, Cc1nn(CC(=O)O)c(=O)c2cc3cc(F)ccc3n12 -9.74%, COC(=O)c1ccc(C2c3c(oc4ccccc4c3=O)C(=O)N2c2nc(C)c(C(=O)OC)s2)cc1 (stereo not given) -5.79%, O=C(Nc1cc(Cl)cc(Cl)c1)c1ccc2c(c1)N(Cc1cccc(Cl)c1)C(=O)c1ccccc1S2=O (stereo not given) -3.84%, COc1ccccc1NC(=O)c1cc(S(=O)(=O)N2CCN(c3ccccc3Cl)CC2)ccc1F -9.39%, Cc1oc(-c2cccc(Cl)c2)nc1CS(=O)(=O)CC(=O)NCc1ccccc1Cl -17.9%, CCCOc1ccc(C(=O)Nc2cc3c(cc2N2CCOCC2)n(C)c(=O)n3C)cc1 -15.5%, Cc1cccc(-n2c(=O)c3c(c4cc(C)ccc4n3C)n(CC(=O)NCC3CCCO3)c2=O)c1 (stereo not given) -5.13%, CCCCCCCCCCCCOCCO -15.4%, Cc1ccc2c(c1)c(=O)c1ccccc1n2CCCC(=O)Nc1cc(Cl)ccc1C -9.8%, Cc1ccc(NC(=O)c2cnc(N3CCCCC3)c3ccccc23)c(C)c1 -14.1%, COCCCNC(=O)C1CCN(C(=O)c2cnn(-c3ccccc3)c2-n2cccc2)CC1 -12.9%, CCCN1CCN(C(=O)Cn2c(-c3cccs3)cc3ccccc32)CC1 -8.1%, COC(=O)c1c(Oc2ccc(OC)cc2)nnc(-c2ccccc2)c1-c1ccccc1 0.524%, CC(C)CC(=O)Nc1nc2nc(-c3ccccc3)cc(=O)n2[nH]1 -11.5%, CCCCOc1ccc(C2=NC(c3cccs3)=Nc3ccc(CC)cc3N2)cc1 -9.05%, Cc1cc(N2CCCCC2)nc2ccc(NC(=O)/C=C/c3ccc(OC(C)C)cc3)cc12 -20.3%, COc1cccc(NC(=O)CN2C(=O)CSc3ccc(S(=O)(=O)N4CCCC4)cc32)c1 -8.45%, Cc1ccc(CNC(=O)c2cccn2-c2nnc(N3CCCC3)s2)cc1 -12.8%, Cc1ccc2c(CC(=O)Nc3ccc(S(=O)(=O)N4CCCCC4C)cc3)coc2c1 (stereo not given) -19.5%, CCOc1ccccc1CNC(=O)c1ccc(N2Cc3ccccc3Oc3ncccc32)s1 -16.8%, COc1ccc(CNC(=O)CCCn2nc(C)c3sc4ccccc4c3c2=O)cc1OC -7.91%, Cc1ccc(N2C(=O)NC(NS(=O)(=O)c3ccccc3)(C(F)(F)F)C2=O)cc1C (stereo not given) 3.44%, CCOC(=O)c1ccc(O)c(O)c1 -10.9%, Cc1cccc(NC(=O)N2CCN(C(=O)c3nsc4ccccc34)CC2)c1C -6.82%, CCC1CCCCN1CCCNC(=O)CN1C(=O)c2cccnc2Oc2ccc(C)cc21 (stereo not given) -13.9%, O=C(Nc1ccc(Br)cc1F)C1CCN(c2nc3ccccc3[nH]2)CC1 3.37%, Clc1ccc2c(c1)-c1c(cnc3cc(-c4ccccc4)nn13)CO2 -15.5%, COC(=O)COc1ccc2oc(-c3ccc(OC)cc3)cc(=O)c2c1 0.0439%, COc1ccc(N2CCN(C(=O)c3cnn(-c4ccc(F)cc4)c3-n3cccc3)CC2)cc1 10.5%, CC1CN(C(=O)N2CCC(C(=O)N3CCN(c4ccccc4)CC3)CC2)c2cc(Cl)ccc2O1 (stereo not given) -1.66%, CCOc1ccc2nc(N3CCC(C(=O)Nc4ccccc4CC)CC3)sc2c1 -11.3%, CCOc1ccc(C(=O)Nc2nnc(S(=O)(=O)Nc3ccccc3)s2)cc1 -20.3%, CCOc1cc2[nH]c(=O)n(CCCCC(=O)N3CCN(c4ccc(OC)cc4)CC3)c(=O)c2cc1OCC -8.57%, O=C1CCCc2cc(S(=O)(=O)N3CCCC(C(=O)Nc4ccc(F)c(Cl)c4)C3)ccc2N1 (stereo not given) -38.8%, CSc1cccc(Nc2cc(C(=O)NCCc3ccc(Cl)cc3)c3ccccc3n2)c1 7.79%, O=C(Cn1c(=O)n(CCCS(=O)(=O)C2CCCCC2)c(=O)c2ccccc21)Nc1ccccc1C(F)(F)F -14.1%, COc1ccc(NC(=O)CCn2c(=O)c3cccn3c3cccnc32)cc1Cl -11.5%, Cc1ccc(S(=O)(=O)c2[nH]c(-c3ccccc3)nc2SCC(N)=O)cc1 -4.58%, Cc1oc2c(cc(NS(=O)(=O)c3ccc(C(C)C)cc3)c3ccccc32)c1C(=O)O -15.5%, CC(C)C(=O)N1c2nc(-c3ccco3)nn2C2(CCCCC2)[C@@H]2CCCC[C@@H]21 15.7%, CC(=O)Nc1ccc(S(=O)(=O)N2CCC(c3nnc(-c4ccc(C)cc4)o3)CC2)cc1 -13.6%, CCN(CC)C(=O)c1sc2c(c1C)c(=O)n(-c1ccc(Cl)c(Cl)c1)c(=O)n2Cc1cc(=O)n2ccccc2n1 -8.83%, COc1cccc(CNC(=O)Cn2c(=O)n3nc(-c4cccc(F)c4)nc3c3ccccc32)c1 1.15%, Cc1ccc(CCNc2ncnc3onc(-c4ccc(F)cc4)c23)cc1 -12.1%
